Source: PMC11271582, “Pan-serotype dengue virus inhibitor JNJ-A07 targets NS4A-2K-NS4B interaction with NS2B/NS3 and blocks replication organelle formation” (Nature Communications, 2024)
Where two headings read alike, the source gives them in different places.

Columns and labels:
[1] = test system: sgDVs-R2A replicons with NS4B resistance mutations (DENV 2/16681); details: fold change in EC50 versus WT
[2] = test system: sgDVs-R2A replicons with NS4B resistance mutations (DENV 2/16681); design: method as in PMID 34671169; details: fold change in EC50 versus WT; cited from earlier work

| Structure (SMILES) | resistance conferred by NS4B mutations L94F, V91A, T216N [1] | resistance conferred by NS4B mutations S85L, T108I and A137T [1] | resistance conferred by NS4B mutations L94F, V91A, T216N [2] |
| --- | --- | --- | --- |
| C#CCCC1(CCn2cc(C(=O)C(Nc3cc(OC)cc(OCCOC)c3)c3ccc(Cl)cc3OC)c3cc(OC(F)(F)F)ccc32)N=N1 (stereo not drawn) [Compound A] | strong | weak |  |
| COc1cc(NC(C(=O)N2CCc3ccc(OC(F)(F)F)cc32)c2ccc(Cl)cc2)cc(OCCCC(=O)O)c1 (stereo not drawn) [JNJ-A07] |  |  | strong |
